In US20080112933A1 (priority 2004, published 2008):

Tests used:
bone marrow lin− cells [1] = type: cell-based, mouse
bone marrow lin− cells [2] = conditions: mouse, in vivo
lymph node lymphocytes = conditions: mouse, in vivo

SMILES: Cc1ccc(C(=O)Nc2ccc(S(=O)(=O)O)c3cc(S(=O)(=O)O)cc(S(=O)(=O)O)c23)cc1NC(=O)c1cccc(NC(=O)Nc2cccc(C(=O)Nc3cc(C(=O)Nc4ccc(S(=O)(=O)O)c5cc(S(=O)(=O)O)cc(S(=O)(=O)O)c45)ccc3C)c2)c1 [suramin]
- transmigration towards SDF-1α (bone marrow lin− cells [1]): no effect on the transmigration
- homing of cells to the bone marrow (bone marrow lin− cells [2]): did result in an impairment of the cells to home to the bone marrow
- homing of lymphocytes to the lymph nodes (lymph node lymphocytes): no effect on their homing to the lymph nodes
